Measurements: US20230312722A1 (NONA BIOSCIENCES SUZHOU, published 2023)

Key:
Assay in all cases: ELISA, plate coated with 1 µg/mL B7 family protein
[1] = target: T1, Human B7-1/CD80 Protein, Fc Tag (Acro B71-H5259) (human, UniProt P33681 35-242)
T1 construct: Bought protein
T1 sequence (looked up): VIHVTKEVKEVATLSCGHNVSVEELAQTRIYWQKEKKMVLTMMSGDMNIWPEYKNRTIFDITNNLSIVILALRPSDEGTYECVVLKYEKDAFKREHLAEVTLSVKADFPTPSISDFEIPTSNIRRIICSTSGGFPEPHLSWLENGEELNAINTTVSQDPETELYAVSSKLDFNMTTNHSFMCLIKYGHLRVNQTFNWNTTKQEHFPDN
Procedure: (§1) The proteins of the B7 family (see Table 9-1 for details) were each diluted to 1 μg/mL with PBS, added to a 96-well plate (Corning, #9018) at 100 μL per well, and incubated overnight at 4° C. After the liquid was discarded, the plate was washed 3 times with PBST buffer (pH 7.4, containing 0.05% tween-20), and 250 μL of 2% BSA blocking buffer was added. The plate was incubated at 37° C. for 1 hour. The blocking buffer was discarded, and the plate was washed 3 times with PBST buffer (pH 7.4, containing 0.05% Tween-20). The test antigen-binding protein was diluted to 2 concentrations: 10 nM and 1 nM, and added at 100 μL per well. The plate was incubated at 37° C. for 1 hour. An isotype antibody was taken as a control. After the plate was washed 3 times with PBST buffer (pH 7.4, containing 0.05% Tween-20), the plate was added with a 5000-fold diluted goat anti-human F(ab′)₂ HRP secondary antibody (Jackson ImmunoResearch, 109-035-097), and incubated at 37° C. away from light for 1 hour. After the plate was washed 3 times with PBST buffer (pH 7.4, containing 0.05% Tween-20), TMB (Biopanda, #TMB-S-003) was added at 100 μL/well. The plate was left away from light at room temperature for about 30 minutes. The reactions were terminated by adding 50 μL of stop buffer (BBI life sciences, #E661006-0200) to each well, and the absorbance values at 450 nm (OD450) was measured using a microplate reader (PerkinElemer, #Enspire).

[2] = target: T2, Human B7-DC/PD-L2/CD273 Protein, Recombinant (Fc Tag) (Sino Biological H10292-H02H) (human, UniProt Q9BQ51 20-219)
T2 construct: Bought protein
T2 sequence (looked up): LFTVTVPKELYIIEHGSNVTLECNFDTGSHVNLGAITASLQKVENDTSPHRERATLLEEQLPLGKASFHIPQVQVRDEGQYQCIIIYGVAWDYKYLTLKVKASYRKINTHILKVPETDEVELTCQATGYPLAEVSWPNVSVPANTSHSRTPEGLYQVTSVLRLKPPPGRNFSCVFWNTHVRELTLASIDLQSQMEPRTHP
Procedure: as §1

[3] = target: T3, Recombinant human VISTA/B7H5/PD-1H Fc Chimera (R&D 7126-B7-050) (human, UniProt Q9H7M9 33-194)
T3 construct: Bought protein
T3 sequence (looked up): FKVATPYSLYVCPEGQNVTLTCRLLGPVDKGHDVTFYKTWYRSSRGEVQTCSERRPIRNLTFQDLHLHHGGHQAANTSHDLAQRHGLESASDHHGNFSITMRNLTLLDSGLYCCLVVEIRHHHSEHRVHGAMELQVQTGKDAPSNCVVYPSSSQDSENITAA
Procedure: as §1

[4] = target: T4, B7-H3/CD276 Protein, Human, Recombinant (ECD, Fc Tag) (Sino Biological 11188-H02H) (human, UniProt Q5ZPR3 29-466)
T4 construct: extracellular domain; Bought protein
T4 sequence (looked up): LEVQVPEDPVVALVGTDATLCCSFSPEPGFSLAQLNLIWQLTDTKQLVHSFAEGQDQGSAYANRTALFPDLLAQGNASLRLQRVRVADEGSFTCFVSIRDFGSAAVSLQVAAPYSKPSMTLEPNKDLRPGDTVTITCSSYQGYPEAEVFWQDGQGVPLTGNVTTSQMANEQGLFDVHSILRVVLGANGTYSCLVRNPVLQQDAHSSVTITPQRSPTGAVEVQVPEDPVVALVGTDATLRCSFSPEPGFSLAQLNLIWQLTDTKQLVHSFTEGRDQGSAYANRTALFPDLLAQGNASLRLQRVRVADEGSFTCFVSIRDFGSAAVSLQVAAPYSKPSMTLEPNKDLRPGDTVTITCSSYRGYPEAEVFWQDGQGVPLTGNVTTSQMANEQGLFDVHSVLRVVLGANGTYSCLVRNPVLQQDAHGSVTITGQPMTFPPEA
Procedure: as §1

[5] = target: T5, CD275/ICOS ligand Protein, Human, Recombinant (Fc Tag) (Sino Biological 11559-H02H) (human, UniProt O75144 19-258)
T5 construct: Bought protein; also called B7H2
T5 sequence (looked up): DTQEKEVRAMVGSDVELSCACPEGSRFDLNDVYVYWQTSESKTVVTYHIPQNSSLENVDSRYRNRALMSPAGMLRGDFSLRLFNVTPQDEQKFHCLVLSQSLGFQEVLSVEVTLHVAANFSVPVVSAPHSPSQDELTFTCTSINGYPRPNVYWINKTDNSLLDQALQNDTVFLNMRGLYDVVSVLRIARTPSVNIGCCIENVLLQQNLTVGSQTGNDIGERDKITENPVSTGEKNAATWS
Procedure: as §1

[6] = target: T6, B7-H6/NCR3LG1 Protein, Human, Recombinant (Fc Tag) (Sino Biological 16140-H02H) (human, UniProt Q68D85 25-262)
T6 construct: Bought protein
T6 sequence (looked up): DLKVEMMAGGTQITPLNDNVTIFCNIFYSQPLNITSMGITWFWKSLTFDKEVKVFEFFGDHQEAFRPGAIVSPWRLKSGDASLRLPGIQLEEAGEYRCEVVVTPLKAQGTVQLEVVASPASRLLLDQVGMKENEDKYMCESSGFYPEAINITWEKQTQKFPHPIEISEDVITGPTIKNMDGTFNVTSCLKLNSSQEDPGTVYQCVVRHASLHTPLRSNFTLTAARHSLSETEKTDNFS
Procedure: as §1

binding result [1]: no binding (tested: 10 nM)
binding result [2]: no binding (tested: 10 nM)
binding result [3]: no binding (tested: 10 nM)
binding result [4]: no binding (tested: 10 nM)
binding result [5]: no binding (tested: 10 nM)
binding result [6]: no binding (tested: 10 nM)
B1: PR002421 (antibody, human IgG1, kappa)
heavy: QVQLVQSGAEVKKPGSSMRVSCKASEDTFSSYAISWVRQAPGQGLEWMGGTAPIFGTTNYAQKFQGRVTITADKSTSTAYMELSSLRSEDTAVYYCARGGPYFDYWGQGTLVTVSSASTKGPSVFPLAPSSKSTSGGTAALGCLVKDYFPEPVTVSWNSGALTSGVHTFPAVLQSSGLYSLSSVVTVPSSSLGTQTYICNVNHKPSNTKVDKKV[human IgG1 Fc with changes not written out]
light: EIVMTQSPASLSVSPGERATLSCRASQSVSSNLAWYQQKPGQAPRLLIYGASTRATGIPARVSGGGSGTEFTLTISSLQSEDFAVYYCQQYKNWPFTFGPGTKLEIKRTVAAPSVFIFPPSDEQLKSGTASVVCLLNNFYPREAKVQWKVDNALQSGNSQESVTEQDSKDSTYSLSSTLTLSKADYEKHKVYACEVTHQGLSSPVTKSFNRGEC
notes: PTM variant/DE mutant of PR002037 (L: C87Y; Fc S239D, I332E), human IgG1; also called RP002421
